Test results taken from the supplement of paper PMC8728848.
Some of the results follow.

Tests used:
Experiment in all cases: glycan array binding signal (z-score within array); higher = stronger binding
Settings in all cases: glycan notation: IUPAC condensed, linker removed
[1] = target: GlcNAc(b1-2)Gal(b1-3)GalNAc
How it was run: (§1)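 The binding signal is a Z-score computed within each array. Data were drawn from 3228 arrays in the Consortium for Functional Glycomics database, restricted to those with a known protein sequence. Scores were averaged over arrays of the same protein sequence at different concentrations or buffers, and over linkers, and negative values can be taken as non-binding.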

[2] = target: GlcNAc(b1-2)Man(a1-3)[GlcNAc(b1-2)Man(a1-6)]Man(b1-4)GlcNAc(b1-4)GlcNAc
How it was run: as §1

[3] = target: GlcNAc(b1-2)Man(a1-3)[GlcNAc(b1-2)Man(a1-6)]Man(b1-4)GlcNAc(b1-4)[Fuc(a1-6)]GlcNAc
How it was run: as §1

[4] = target: GlcNAc(b1-2)Man(a1-3)[GlcNAc(b1-4)][GlcNAc(b1-2)Man(a1-6)]Man(b1-4)GlcNAc(b1-4)GlcNAc
How it was run: as §1

[5] = target: GlcNAc(b1-2)Man(a1-3)[GlcNAc(b1-4)][GlcNAc(b1-2)Man(a1-6)]Man(b1-4)GlcNAc(b1-4)[Fuc(a1-6)]GlcNAc
How it was run: as §1

[6] = target: GlcNAc(b1-2)[GlcNAc(b1-4)]Man(a1-3)[GlcNAc(b1-2)Man(a1-6)]Man(b1-4)GlcNAc(b1-4)GlcNAc
How it was run: as §1

[7] = target: GlcNAc(b1-2)[GlcNAc(b1-4)]Man(a1-3)[GlcNAc(b1-4)][GlcNAc(b1-2)Man(a1-6)]Man(b1-4)GlcNAc(b1-4)GlcNAc
How it was run: as §1

[8] = target: GlcNAc(b1-2)[GlcNAc(b1-4)]Man(a1-3)[GlcNAc(b1-4)][GlcNAc(b1-2)[GlcNAc(b1-6)]Man(a1-6)]Man(b1-4)GlcNAc(b1-4)GlcNAc
How it was run: as §1

[9] = target: GlcNAc(b1-2)[GlcNAc(b1-4)]Man(a1-3)[GlcNAc(b1-4)][GlcNAc(b1-2)[GlcNAc(b1-6)]Man(a1-6)]Man(b1-4)GlcNAc(b1-4)[Fuc(a1-6)]GlcNAc
How it was run: as §1

[10] = target: GlcNAc(b1-2)[GlcNAc(b1-6)]Man(a1-6)[GlcNAc(b1-2)Man(a1-3)]Man(b1-4)GlcNAc(b1-4)GlcNAc
How it was run: as §1

[11] = target: GlcNAc(b1-2)[GlcNAc(b1-6)]Man(a1-6)[GlcNAc(b1-2)Man(a1-3)]Man(b1-4)GlcNAc(b1-4)[Fuc(a1-6)]GlcNAc
How it was run: as §1

[12] = target: GlcNAc(b1-2)[GlcNAc(b1-6)]Man(a1-6)[GlcNAc(b1-4)][GlcNAc(b1-2)Man(a1-3)]Man(b1-4)GlcNAc(b1-4)GlcNAc
How it was run: as §1

GlcNAc(b1-3)Fuc = target: GlcNAc(b1-3)Fuc
How it was run: as §1

GlcNAc(b1-3)Gal = target: GlcNAc(b1-3)Gal
How it was run: as §1

[13] = target: GlcNAc(b1-3)Gal(b1-3)GalNAc
How it was run: as §1

GlcNAc(b1-3)Gal(b1-4)Glc = target: GlcNAc(b1-3)Gal(b1-4)Glc
How it was run: as §1

[14] = target: GlcNAc(b1-3)Gal(b1-4)GlcNAc
How it was run: as §1

[15] = target: GlcNAc(b1-3)Gal(b1-4)GlcNAc(b1-2)Man(a1-3)[GlcNAc(b1-3)Gal(b1-4)GlcNAc(b1-2)Man(a1-6)]Man(b1-4)GlcNAc(b1-4)GlcNAc
How it was run: as §1

[16] = target: GlcNAc(b1-3)Gal(b1-4)GlcNAc(b1-2)Man(a1-3)[GlcNAc(b1-3)Gal(b1-4)GlcNAc(b1-2)Man(a1-6)]Man(b1-4)GlcNAc(b1-4)[Fuc(a1-6)]GlcNAc
How it was run: as §1

[17] = target: GlcNAc(b1-3)Gal(b1-4)GlcNAc(b1-2)[GlcNAc(b1-3)Gal(b1-4)GlcNAc(b1-6)]Man(a1-6)[GlcNAc(b1-3)Gal(b1-4)GlcNAc(b1-2)Man(a1-3)]Man(b1-4)GlcNAc(b1-4)GlcNAc
How it was run: as §1

[18] = target: GlcNAc(b1-3)Gal(b1-4)GlcNAc(b1-3)Gal(b1-4)GlcNAc
How it was run: as §1

[19] = target: GlcNAc(b1-3)Gal(b1-4)GlcNAc(b1-3)Gal(b1-4)GlcNAc(b1-2)Man(a1-3)[GlcNAc(b1-3)Gal(b1-4)GlcNAc(b1-3)Gal(b1-4)GlcNAc(b1-2)Man(a1-6)]Man(b1-4)GlcNAc(b1-4)GlcNAc
How it was run: as §1

[20] = target: GlcNAc(b1-3)Gal(b1-4)GlcNAc(b1-3)Gal(b1-4)GlcNAc(b1-2)Man(a1-3)[GlcNAc(b1-3)Gal(b1-4)GlcNAc(b1-3)Gal(b1-4)GlcNAc(b1-2)Man(a1-6)]Man(b1-4)GlcNAc(b1-4)[Fuc(a1-6)]GlcNAc
How it was run: as §1

[21] = target: GlcNAc(b1-3)Gal(b1-4)GlcNAc(b1-3)Gal(b1-4)GlcNAc(b1-2)[GlcNAc(b1-3)Gal(b1-4)GlcNAc(b1-3)Gal(b1-4)GlcNAc(b1-6)]Man(a1-6)[GlcNAc(b1-3)Gal(b1-4)GlcNAc(b1-3)Gal(b1-4)GlcNAc(b1-2)Man(a1-3)]Man(b1-4)GlcNAc(b1-4)[Fuc(a1-6)]GlcNAc
How it was run: as §1

[22] = target: GlcNAc(b1-3)Gal(b1-4)GlcNAc(b1-3)Gal(b1-4)GlcNAc(b1-3)Gal(b1-4)GlcNAc(b1-2)Man(a1-3)[GlcNAc(b1-3)Gal(b1-4)GlcNAc(b1-3)Gal(b1-4)GlcNAc(b1-3)Gal(b1-4)GlcNAc(b1-2)Man(a1-6)]Man(b1-4)GlcNAc(b1-4)GlcNAc
How it was run: as §1

[23] = target: GlcNAc(b1-3)Gal(b1-4)GlcNAc(b1-3)Gal(b1-4)GlcNAc(b1-3)Gal(b1-4)GlcNAc(b1-2)Man(a1-3)[GlcNAc(b1-3)Gal(b1-4)GlcNAc(b1-3)Gal(b1-4)GlcNAc(b1-3)Gal(b1-4)GlcNAc(b1-2)Man(a1-6)]Man(b1-4)GlcNAc(b1-4)[Fuc(a1-6)]GlcNAc
How it was run: as §1

[24] = target: GlcNAc(b1-3)Gal(b1-4)GlcNAc(b1-3)Gal(b1-4)GlcNAc(b1-3)Gal(b1-4)GlcNAc(b1-2)[GlcNAc(b1-3)Gal(b1-4)GlcNAc(b1-3)Gal(b1-4)GlcNAc(b1-3)Gal(b1-4)GlcNAc(b1-6)]Man(a1-6)[GlcNAc(b1-3)Gal(b1-4)GlcNAc(b1-3)Gal(b1-4)GlcNAc(b1-3)Gal(b1-4)GlcNAc(b1-2)Man(a1-3)]Man(b1-4)GlcNAc(b1-4)[Fuc(a1-6)]GlcNAc
How it was run: as §1

[25] = target: GlcNAc(b1-3)Gal(b1-4)GlcNAc(b1-3)Gal(b1-4)GlcNAc(b1-3)Gal(b1-4)GlcNAc(b1-3)Gal(b1-4)GlcNAc(b1-2)Man(a1-3)[GlcNAc(b1-3)Gal(b1-4)GlcNAc(b1-3)Gal(b1-4)GlcNAc(b1-3)Gal(b1-4)GlcNAc(b1-3)Gal(b1-4)GlcNAc(b1-2)Man(a1-6)]Man(b1-4)GlcNAc(b1-4)GlcNAc
How it was run: as §1

[26] = target: GlcNAc(b1-3)Gal(b1-4)GlcNAc(b1-3)Gal(b1-4)GlcNAc(b1-3)Gal(b1-4)GlcNAc(b1-3)Gal(b1-4)GlcNAc(b1-2)Man(a1-3)[GlcNAc(b1-3)Gal(b1-4)GlcNAc(b1-3)Gal(b1-4)GlcNAc(b1-3)Gal(b1-4)GlcNAc(b1-3)Gal(b1-4)GlcNAc(b1-2)Man(a1-6)]Man(b1-4)GlcNAc(b1-4)[Fuc(a1-6)]GlcNAc
How it was run: as §1

[27] = target: GlcNAc(b1-3)Gal(b1-4)GlcNAc(b1-3)Gal(b1-4)GlcNAc(b1-3)Gal(b1-4)GlcNAc(b1-3)Gal(b1-4)GlcNAc(b1-2)[GlcNAc(b1-3)Gal(b1-4)GlcNAc(b1-3)Gal(b1-4)GlcNAc(b1-3)Gal(b1-4)GlcNAc(b1-3)Gal(b1-4)GlcNAc(b1-6)]Man(a1-6)[GlcNAc(b1-3)Gal(b1-4)GlcNAc(b1-3)Gal(b1-4)GlcNAc(b1-3)Gal(b1-4)GlcNAc(b1-3)Gal(b1-4)GlcNAc(b1-2)Man(a1-3)]Man(b1-4)GlcNAc(b1-4)[Fuc(a1-6)]GlcNAc
How it was run: as §1

[28] = target: GlcNAc(b1-3)Gal(b1-4)GlcNAc(b1-3)Gal(b1-4)GlcNAc(b1-3)GalNAc
How it was run: as §1

[29] = target: GlcNAc(b1-3)Gal(b1-4)GlcNAc(b1-3)GalNAc
How it was run: as §1

[30] = target: GlcNAc(b1-3)Gal(b1-4)GlcNAc(b1-3)[GlcNAc(b1-3)Gal(b1-4)GlcNAc(b1-3)]GalNAc
How it was run: as §1

[31] = target: GlcNAc(b1-3)Gal(b1-4)GlcNAc(b1-6)[Gal(b1-3)]GalNAc
How it was run: as §1

[32] = target: GlcNAc(b1-3)Gal(b1-4)GlcNAc(b1-6)[GlcNAc(b1-3)Gal(b1-3)]GalNAc
How it was run: as §1

[33] = target: GlcNAc(b1-3)Gal(b1-4)GlcNAc(b1-6)[GlcNAc(b1-3)]Gal(b1-4)GlcNAc
How it was run: as §1

GlcNAc(b1-3)GalNAc = target: GlcNAc(b1-3)GalNAc
How it was run: as §1

GlcNAc(b1-3)Man = target: GlcNAc(b1-3)Man
How it was run: as §1

[34] = target: GlcNAc(b1-3)[GlcNAc(b1-4)][GlcNAc(b1-6)]GlcNAc
How it was run: as §1

[35] = target: GlcNAc(b1-3)[GlcNAc(b1-6)]Gal(b1-4)GlcNAc
How it was run: as §1

[36] = target: GlcNAc(b1-3)[GlcNAc(b1-6)]GalNAc
How it was run: as §1

[37] = target: GlcNAc(b1-4)Gal(b1-4)GlcNAc
How it was run: as §1

GlcNAc(b1-4)GlcNAc = target: GlcNAc(b1-4)GlcNAc
How it was run: as §1

[38] = target: GlcNAc(b1-4)GlcNAc(b1-4)GlcNAc
How it was run: as §1

[39] = target: GlcNAc(b1-4)GlcNAc(b1-4)GlcNAc(b1-4)GlcNAc(b1-4)GlcNAc
How it was run: as §1

B1: MPA (Maclura pomifera), P18674 (protein)
chain: GVTFDDGAYTGIREINFEYNSETAIGGLRVTYDLNGMPFVAEDHKSFITGFKPVKISLEFPSEYIVEVSGYVGKVEGYTVIRSLTFKTNKQTYGPYGVTNGTPFSLPIENGLIVGFKGSIGYWLDYFSIYLSL
- glycan array binding signal (z-score) [1]: -0.159
- glycan array binding signal (z-score) [2]: -0.231
- glycan array binding signal (z-score) [3]: -0.08
- glycan array binding signal (z-score) [4]: -0.296
- glycan array binding signal (z-score) [5]: -0.195
- glycan array binding signal (z-score) [6]: -0.179
- glycan array binding signal (z-score) [7]: -0.226
- glycan array binding signal (z-score) [8]: -0.261
- glycan array binding signal (z-score) [9]: -0.299
- glycan array binding signal (z-score) [10]: -0.22
- glycan array binding signal (z-score) [11]: -0.266
- glycan array binding signal (z-score) [12]: -0.327
- glycan array binding signal (z-score) (GlcNAc(b1-3)Fuc): -0.053
- glycan array binding signal (z-score) (GlcNAc(b1-3)Gal): -0.067
- glycan array binding signal (z-score) [13]: 0.154
- glycan array binding signal (z-score) (GlcNAc(b1-3)Gal(b1-4)Glc): -0.192
- glycan array binding signal (z-score) [14]: -0.233
- glycan array binding signal (z-score) [15]: -0.201
- glycan array binding signal (z-score) [16]: 1.06
- glycan array binding signal (z-score) [17]: 5.1
- glycan array binding signal (z-score) [18]: -0.233
- glycan array binding signal (z-score) [19]: 3.5
- glycan array binding signal (z-score) [20]: 2.23
- glycan array binding signal (z-score) [21]: 2.05
- glycan array binding signal (z-score) [22]: 0.656
- glycan array binding signal (z-score) [23]: 5.73
- glycan array binding signal (z-score) [24]: 4.46
- glycan array binding signal (z-score) [25]: 0.09
- glycan array binding signal (z-score) [26]: -0.071
- glycan array binding signal (z-score) [27]: 0.56
- glycan array binding signal (z-score) [28]: -0.343
- glycan array binding signal (z-score) [29]: -0.266
- glycan array binding signal (z-score) [30]: 0.326
- glycan array binding signal (z-score) [31]: -0.223
- glycan array binding signal (z-score) [32]: -0.194
- glycan array binding signal (z-score) [33]: -0.119
- glycan array binding signal (z-score) (GlcNAc(b1-3)GalNAc): -0.162
- glycan array binding signal (z-score) (GlcNAc(b1-3)Man): -0.191
- glycan array binding signal (z-score) [34]: -0.275
- glycan array binding signal (z-score) [35]: -0.217
- glycan array binding signal (z-score) [36]: -0.085
- glycan array binding signal (z-score) [37]: -0.239
- glycan array binding signal (z-score) (GlcNAc(b1-4)GlcNAc): -0.211
- glycan array binding signal (z-score) [38]: -0.086
- glycan array binding signal (z-score) [39]: -0.014
